This note sets out measurements from publication PMC12040169 (PLOS Biology, 2025).

The structures appear in SMILES notation. Some of the results follow.

The assay relates to T1, C. trachomatis L2/434/Bu expressing GFP (CTL2-GFP).
T1 construct: L2/434/Bu GFP intracellular growth in HeLa cells
Also noted: species or system HeLa; C. trachomatis total inclusion area by high-content imaging, normalised to DMSO. The note with it: total inclusion area; 28.5 h, 10 µM; inhibitor. The procedure, abridged: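 Imaging read-out: GFP inclusions and Hoechst nuclei captured by high-content imaging after fixation. Inclusion area/number = chlamydial growth; nuclei count = host cell viability. MIC calculated per earlier method.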
For `CS(=O)(=O)N1CCC2(CC1)NC(=O)N(Cc1ccccc1)C2=O` [CBK287656], the “% of control remaining” value is on record as 92.6318. Next, `Cc1c(C(=O)N(C(C)C)C2CC2)nnn1-c1ccc2ncccc2c1` [CBK305518]: 57.4565. Consider `CN(C)S(=O)(=O)c1cccc(-c2cn3cccnc3n2)c1` [CBK267580], for which the “% of control remaining” value is reported as 79.3558. Then `CC12CN3CC(C)(CN(C1)C3c1cccc([N+](=O)[O-])c1)C2=O` (centres unmarked) [CBK009030], with 99.0638; and `OC[C@H]1O[C@@H](n2cnc3cncnc32)C[C@H]1O` [CBK201243], with 122.876; and `CC(C)(C)C1CCC(OC(=O)CCC(=O)O)CC1` (centres unmarked) [CBK026882], with 94.493.

As for `COc1ccc(-c2nn(CCC#N)cc2C(=O)N2CCCCC2)cc1` [CBK305834], the “% of control remaining” value is reported as 75.2776. Then `CC(CN(C)C)C(=O)c1ccsc1` (centres unmarked) [CBK025906], with 50.6682. Next, `O=C(NC1CCc2ccccc21)N1CCN(CCc2ccccc2)CC1` (centres unmarked) [CBK158936]: 102.212.

`COCCNc1nc(-c2cc(OC)c(OC)c(OC)c2)cnc1N` [CBK063559]: the “% of control remaining” value was found to be 104.148. Then `CCCn1cnc2c1CN(C(C)=O)[C@H](C(=O)OC)C2` [CBK288995], with 77.4013. Turning to `CCc1ccc(C2CC(=O)c3c(ccc4ccccc34)N2)cc1` (centres unmarked) [CBK098787], the “% of control remaining” value is 80.8532. Then `CC(C)(O)Cc1ccccc1C(=O)NC1CCCCCC1` [CBK010502], with 78.1574; and `O=C(Nc1ccc(Oc2ccccc2)cc1)c1cc([N+](=O)[O-])cc2cn[nH]c12` [CBK293985], with 101.919; and `Nc1nc(N)n(-c2ccccc2)n1` [CBK026515], with 53.3498. Turning to `Cc1ccc(N2C(=O)CC(Sc3ncccc3C(=O)O)C2=O)cc1` (centres unmarked) [CBK287761], the “% of control remaining” value amounted to 98.4587. Then `CN(c1ncccc1CNC(=O)c1cccnc1)C1CCCCC1` [CBK306555], with 32.644; and `CC(C)C[C@@H]1N[C@H](C(=O)NCCN(C)C)Cc2c[nH]c3cccc1c23` [CBK289417], with 112.051; and `Oc1ccc(-n2cc(-c3ccc(F)cc3)nn2)cc1` [CBK113126], with 104.875.

Turning to `CCC1CN(C(=O)Cn2cnc3ccc(F)cc3c2=O)CCO1` (centres unmarked) [CBK305795], the “% of control remaining” value is 50.9697.

As for `O=C(Nc1ccncc1)OCCc1cccnc1` [CBK200125], the “% of control remaining” value is reported as 95.4326. Next, `CCn1c(CN(C)Cc2cc(C)[nH]n2)nc2ccccc21` [CBK282120]: 109.294; `O=C(CSc1nnc(COc2ccccc2)n1-c1ccccc1)c1cccs1` [CBK265133]: 82.399. Next, `Cc1cc(C)nc(NC2=NC3CCCCC3N2C(=O)Nc2ccc(Cl)c(Cl)c2)n1` (centres unmarked) [CBK266458]: 85.9632; `Cc1ccc(Cl)cc1NC(=N)NC(=N)N` [CBK268049]: 121.252. Consider `O=C(O)c1ccc(-n2ccnc2)c(C#Cc2ccccc2)c1` [CBK284502], for which the “% of control remaining” value is on record as 115.611. On to `Cn1c(-c2ccccc2)cnc1NC(=O)CC1CCN(C(=O)Cc2ccccc2)CC1` [CBK285966], for which the “% of control remaining” value came to 121.015.

With `Cc1ccc(SCCNS(=O)(=O)c2cccc([N+](=O)[O-])c2)cc1` [CBK267508], the “% of control remaining” value was 81.5281.

With `Cc1nn(-c2cccc(Br)c2)c(C)c1[C@@H]1C=C[C@@H](NS(C)(=O)=O)C1` [CBK288806], the “% of control remaining” value turned out to be 110.384. Turning to `Cc1cccc(OCCNC(=O)CN2CCCC2c2cnn(C)c2)c1` (centres unmarked) [CBK305826], the “% of control remaining” value was 79.2148. Next, `O=C(O)/C(O)=C/C(=O)c1ccc(F)cc1` [CBK261844]: 92.0278; `Cc1nsc(NCc2ccccc2CN2CCC(O)CC2)c1C#N` [CBK304695]: 68.582.

Regarding `COCC(=O)N1CCC(c2onc3c2CC(C)CC3)CC1` (centres unmarked) [CBK284599], the “% of control remaining” value is on record as 96.6699. Then `CC(C(=O)N1CCC(c2ccncc2)CC1)c1ccccc1` (centres unmarked) [CBK285484], with 99.9464; and `CCc1nc(CN2CCN(c3ccc4nc(C)nn4n3)CC2)cs1` [CBK306285], with 62.9256. On to `Cc1cccc(-c2nc(CN3CCOCC3)cs2)c1` [CBK270299], for which the “% of control remaining” value came out at 112.169. Next, `COc1ccc(CCOc2nccnc2-c2ccc(OC(F)(F)F)cc2)cc1` [CBK106846]: 79.4067; `Cc1ccccc1C(=O)Nc1nc2ccc(S(C)(=O)=O)cc2s1` [CBK287337]: 92.2011. Regarding `CN(C)S(=O)(=O)c1ccc(Cl)c(C(=O)Nc2cccc([N+](=O)[O-])c2)c1` [CBK265721], the “% of control remaining” value was 112.793.

Take `CCCN1C[C@H](NC(=O)CC)[C@@H](c2ccc(OC)cc2)C1` [CBK282134]: the “% of control remaining” value worked out at 77.2318. Then `CCCCC(c1nnn[nH]1)n1nnc2ccccc21` (centres unmarked) [CBK023526], with 85.6874.

With `CSCCOc1cncc(N2CCCC2)n1` [CBK115761], the “% of control remaining” value is listed as 116.543. Then `CCCc1ccc(C(=O)NCC(C)n2cncn2)o1` (centres unmarked) [CBK282883], with 110.268; and `Cn1cc(-c2ccc(C3CCCCN3Cc3ccnc4ccccc34)cn2)cn1` (centres unmarked) [CBK285672], with 101.691.

Turning to `Cc1cccc(-c2cn3ccnc3c(N3CCN(c4ccccn4)CC3)n2)c1` [CBK066478], the “% of control remaining” value is 116.473. For `CSc1nnc(-c2cccc(C)c2)n1CC1CCCCC1` [CBK085418], the “% of control remaining” value amounted to 101.624. Turning to `O=C(O)c1ccc(CSc2nnc(-c3ccccc3)n2Cc2ccccc2)cc1` [CBK265013], the “% of control remaining” value is on record as 98.9438. Then `CC(=O)NCc1cccc(-c2cc(OCC3COc4ccccc4O3)cnc2C)c1` (centres unmarked) [CBK161723A], with 87.8969. Next, `O=C(Nc1cccc2[nH]ccc12)c1ccc2c(c1)OCCO2` [CBK159657]: 108.036; `CCCC12CN3CC(CCC)(CN(C1)C3c1ccc(O)c(OC)c1)C2=O` (centres unmarked) [CBK265531]: 108.726.

For the molecule `COc1cc(C(=O)N2CCC3(CC2)CC(=O)c2cc(NC(C)=O)ccc2O3)nc2c(OC)cccc12` [CBK170664], the “% of control remaining” value stood at 94.235.

For `CCOc1cccc(N2C(=O)CC(N3CCC(C(N)=O)(N4CCCCC4)CC3)C2=O)c1` (centres unmarked) [CBK263562], the “% of control remaining” value was found to be 59.8725.

Regarding `Cc1nonc1OCCN1CCN(c2cc3c(cc2[N+](=O)[O-])n(C)c(=O)n3C)CC1` [CBK267676], the “% of control remaining” value is 103.425.
